About 2,200 (0.71%) of roughly 310,000 compounds showed an effect of 50% or more. The effect is printed as a negative number. This is one part of the list.
What follows are molecules tested against human ether-à-go-go-related gene (hERG) potassium channel (human, UniProt Q12809) (assay: primary screen, population patch clamp on CHO cells stably expressing hERG).
Sequence of human ether-à-go-go-related gene (hERG) potassium channel (Q12809 whole entry, looked up): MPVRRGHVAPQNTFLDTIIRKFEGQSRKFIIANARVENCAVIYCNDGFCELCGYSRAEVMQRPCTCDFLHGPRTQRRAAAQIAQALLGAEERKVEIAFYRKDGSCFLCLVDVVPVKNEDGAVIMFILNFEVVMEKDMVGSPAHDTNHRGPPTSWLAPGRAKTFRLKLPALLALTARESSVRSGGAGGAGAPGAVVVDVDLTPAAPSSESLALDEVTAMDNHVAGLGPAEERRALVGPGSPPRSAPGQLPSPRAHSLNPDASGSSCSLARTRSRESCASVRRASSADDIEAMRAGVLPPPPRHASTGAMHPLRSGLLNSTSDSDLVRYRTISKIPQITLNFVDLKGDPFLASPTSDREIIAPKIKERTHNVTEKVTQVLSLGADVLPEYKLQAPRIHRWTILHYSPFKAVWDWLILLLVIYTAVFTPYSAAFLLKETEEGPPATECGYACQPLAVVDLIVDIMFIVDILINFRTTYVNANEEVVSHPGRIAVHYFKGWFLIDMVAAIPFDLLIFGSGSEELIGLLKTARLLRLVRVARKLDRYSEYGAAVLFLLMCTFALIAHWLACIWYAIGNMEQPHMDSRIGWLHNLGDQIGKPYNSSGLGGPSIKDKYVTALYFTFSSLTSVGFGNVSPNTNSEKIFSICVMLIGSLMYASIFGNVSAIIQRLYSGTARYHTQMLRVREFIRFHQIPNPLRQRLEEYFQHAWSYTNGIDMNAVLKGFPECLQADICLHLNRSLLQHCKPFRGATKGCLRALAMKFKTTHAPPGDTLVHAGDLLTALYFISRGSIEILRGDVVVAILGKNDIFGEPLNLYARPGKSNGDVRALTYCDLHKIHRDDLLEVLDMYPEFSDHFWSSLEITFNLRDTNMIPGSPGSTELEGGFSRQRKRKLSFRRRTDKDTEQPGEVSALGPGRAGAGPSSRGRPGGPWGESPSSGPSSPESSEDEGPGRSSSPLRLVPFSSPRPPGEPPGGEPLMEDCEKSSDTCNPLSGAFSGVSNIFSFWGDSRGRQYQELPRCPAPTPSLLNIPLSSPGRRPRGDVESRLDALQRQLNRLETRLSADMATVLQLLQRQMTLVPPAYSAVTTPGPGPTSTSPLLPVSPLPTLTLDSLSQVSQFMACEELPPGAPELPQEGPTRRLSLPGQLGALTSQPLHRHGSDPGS

SMILES	hERG current change (%, negative = inhibition) at 1uM
O=C(NCc1ccccc1)c1cc(-c2cccc(O)c2)on1	7.37%
O=C1Nc2ccccc2C1(O)Cc1ccncc1 (centres unmarked)	7.04%
Cc1cccc(NCCC(=O)c2ccc(Br)cc2)c1	4.27%
Cc1ccc(C(=O)C(C)OC(=O)Cc2n[nH]c(=O)c3ccccc23)cc1C (centres unmarked)	1.2%
CCOc1ccc(S(=O)(=O)Nc2cccc(C(=O)N3CCN(c4ccccc4O)CC3)c2)cc1	8.62%
Cc1ccc2c(Cl)cc(Cl)c(OCc3c(C)noc3C)c2n1	6.65%
FC(F)(F)c1ccc(Cl)c(NC(=S)N/N=C/c2ccccc2C(F)(F)F)c1	8.26%
COc1ccc(CC(=O)Nc2nnc(SCc3ccccc3)s2)cc1S(=O)(=O)N1CCOCC1	-3.56%
Cc1cccc(-n2cnc(C(=O)N3CCN(C)CC3)c2)n1	14.4%
CCCOc1ccc(C2c3c(oc4ccccc4c3=O)C(=O)N2CCCN2CCOCC2)cc1 (centres unmarked)	5.76%
CN(c1ccccc1)S(=O)(=O)c1ccc(Cl)c(C(=O)NCc2ccccc2CN2CCCC2)c1	-14.9%
COc1ccc(-c2cc(C(=O)N3CCN(c4ccccc4O)CC3)c3ccccc3n2)cc1OC	-21.8%
CC(C)Cn1nc(NC(=O)C2CCCO2)c2cc3ccccc3nc21 (centres unmarked)	1.85%
COc1ccc(N2C(=O)C(CC(=O)Nc3ccc(F)cc3)N(CCc3ccc(OC)c(OC)c3)C2=O)cc1 (centres unmarked)	1.16%
CCOc1ccccc1OCC(=O)OCc1csc(CC(=O)Nc2ccccc2C)n1	6.37%
CCOC(=O)Cn1c(=O)oc2cc(S(=O)(=O)Nc3c(C)cc(C)cc3C)ccc21	3.4%
O=C(COC(=O)CC1CC2CCC1C2)Nc1ccc(F)cc1 (centres unmarked)	-9.58%
CC1(C)C[C@H](O)[C@]2(CO)CC[C@]3(C)C(=CCC4[C@@]5(C)CC[C@H](O)C(C)(C)C5CC[C@]43C)[C@@H]2C1 (some centres unmarked)	2.57%
CCC(=O)Nc1cc(C)c(NC(=O)c2ccccc2OC)cn1	17%
COc1ccc(CNC(=S)Nc2ccccc2C)cc1	2.88%
O=C(Nc1cccc([N+](=O)[O-])c1)C1CC(=O)N(C2CCCCC2)C1 (centres unmarked)	-1.83%
CCCn1c(C(O)c2cc(OC)c(OC)c(OC)c2)nc2ccccc21 (centres unmarked)	13.3%
CS(=O)(=O)N(CC(=O)N1CCN(Cc2ccccc2)CC1)c1ccccc1Br	11.5%

SMILES	hERG current change (%, negative = inhibition) at 1uM
CCOC(=O)C(C)Sc1nnc(Cc2cc(=O)[nH]c(=O)[nH]2)n1-c1cccc(OC)c1 (centres unmarked)	3.84%
CCOC(=O)c1cccc(NC(=O)c2cc(C)nn2-c2ccccc2)c1	8.51%
Cc1ccc2c(c1)C1CN(C)CCC1N2C(=O)c1cccc(S(=O)(=O)N2CC(C)CC(C)C2)c1.Cl (centres unmarked)	2.88%
CC(C)c1ccc(NC(=O)c2sccc2-n2cccc2)cc1	14.9%
O=C(Nc1ccccc1N1CCCC1)c1ccc(N2CCCC2=O)cc1	-0.757%
CCOC(=O)c1cnc2c(cnn2C)c1NCCC(O)C(F)(F)F (centres unmarked)	3.08%
O=C(NCc1ccccc1)C1CCCN(S(=O)(=O)c2ccc(-n3cnnn3)cc2)C1 (centres unmarked)	4.37%
CCCc1cc(=O)[nH]c(SCC(=O)N(Cc2ccccc2)C(C)C)n1	9.69%
Cc1ccc(O)c(CC(C)C)n1	10.5%
COCCCNC(=O)c1ccc(CS(=O)(=O)c2ccccc2C)o1	13.8%
CC1CCN(S(=O)(=O)c2ccc(C(=O)N3CCOCC3)cc2)CC1	14.7%
C=CCn1c(O)c(C(CC)=Nc2cccc(C(=O)O)c2)c(=O)[nH]c1=O	12.6%
Cc1cccc(NS(=O)(=O)c2ccc(C(=O)NCCCN3CCOCC3)cc2)c1C	4.17%
CCN1C(=O)CS/C1=N\c1nccs1	10.7%
C/C(N)=C(/C#N)C(=O)COC(=O)c1cc2c(s1)CCC(C)C2 (centres unmarked)	8.65%
O=C(/C=C1\SC(=O)N(CC(=O)Nc2ccc(F)cc2)C1=O)Nc1ccc(Cl)cc1	11%
O=C(CCc1ccccc1)NNC(=S)NC(=O)c1ccc(Cl)cc1	4.96%
CCCc1ccc(S(=O)(=O)N2CCN(Cc3ccco3)CC2)cc1	13.7%
CCOCCCNC(=O)CS(=O)(=O)Cc1nc(-c2cccc(OC)c2)oc1C	2.81%
CN(C)C(=O)NC1CCCCCCCCCCC1	-0.468%
COc1ccccc1OCCSc1nc(C)c(Cc2ccccc2)c(=O)[nH]1	13.6%
Cc1ccc(-c2csc3ncnc(-n4cnc5ccccc54)c23)cc1	2.25%
CC1(C)Cc2c(sc(/N=C/N3CCCC3)c2C#N)C(C)(C)N1	-4.13%

SMILES	hERG current change (%, negative = inhibition) at 1uM
CCOC(=O)C1C(C(=O)OCC)C1(c1ccccc1)c1ccccc1 (centres unmarked)	1.05%
Cc1cc(C)n2nc(C(=O)OCC(=O)N(C)C3CCCCC3)nc2n1	16.5%
CCN(CC)S(=O)(=O)c1cc(NC(=O)C2=COCCO2)ccc1Cl	8.54%
O=C(O)CCN(Cc1ccccc1)S(=O)(=O)c1ccc(Cl)cc1F	3.17%
COc1ccc(OC)c(NC(=O)C23CC4CC(C2)CC(n2cnc(Br)n2)(C4)C3)c1	-11%
Cc1cccc(NC(=S)N/N=C2/CCCCc3ccccc32)c1	17%
Cc1ccc(C)c(NC(=S)NNC(=O)c2csc(C(C)C)c2)c1	0.742%
CC(C)(C)c1ccc(S(=O)(=O)NCc2ccc(C(=O)N3CCOCC3)cc2)cc1	4.31%
CNC(=O)c1[nH]cnc1C(=O)Nc1cccc(OC)c1	10.2%
c1ccc(CNc2ncnc3nc[nH]c23)cc1	2.05%
COc1ccc(C(=O)Nc2ccnc(-c3cccnc3)n2)cc1	6.62%
O=c1cc(-c2c(F)c(F)c(F)c(F)c2F)oc2ccccc12	15.7%
O=C(O)C=C(Br)Br	7.58%
O=C1CN(C(=O)c2cccc([N+](=O)[O-])c2)CC(=O)N1	12%
Cn1c(NC(=O)/C=C/c2ccccc2)cc(=O)n(C)c1=O	2%
Cc1ccc(S(=O)(=O)N2CCOCC2)cc1C(=O)N1CCCCCC1	0.103%
Cc1cc(=O)oc2cc3c(cc12)OCO3	11.8%
COc1ccccc1N1CC(C(=O)Nc2ccc(N3CCOCC3)cc2)CC1=O (centres unmarked)	12.1%
Nc1nc(N)nc(-c2cccc(Cl)c2)n1	8.43%
CCCCn1c(N)c(N(CCOC)C(=O)CC(NC(=O)c2ccccc2)c2ccccc2)c(=O)[nH]c1=O (centres unmarked)	0.82%
COc1cc2c(cc1OC)C(C)N(C(=O)c1cccs1)CC2 (centres unmarked)	3.9%
Cc1ccc(S(=O)(=O)N2CCN(C(=O)CSc3nnc(C)s3)C2)cc1	8.98%
Nc1nnnn1/N=C/c1ccc(Br)cc1	16.7%

SMILES	hERG current change (%, negative = inhibition) at 1uM
O=C(CSc1nnc(CNc2ccc(Cl)cc2)n1Cc1ccccc1)NCc1ccco1	-1.71%
CN1CCN(C(=O)c2ccc(COc3cc(Cl)ccc3Cl)o2)CC1	-6.31%
COc1ccc(C2Nc3ccccc3C(=O)N2c2ccccc2)cc1Cn1cc([N+](=O)[O-])cn1 (centres unmarked)	-11.7%
CCOC(=O)[C@H]1[C@H]2COc3ccc(OC)cc3[C@@H]2N2C(=O)c3ccc(F)cc3NC(=O)[C@@]12C	11.1%
COc1ccccc1/C=C(/C(=O)NCCCn1ccnc1)c1ccccc1	2.39%
O=C(Cn1c2c(sc1=O)C1c3ccccc3OCC1CS2)Nc1ccc(Cl)c(Cl)c1 (centres unmarked)	11.2%
COc1ccc2nc3ccccc3nc2c1NC(=O)c1ccc(Br)cc1	9.67%
COc1ccc(C(=O)NCCc2cc3ccc(C)c(C)c3[nH]c2=O)cc1OC	-5.3%
CCOC(=O)C1=C(O)C(=O)N(C2CCCCC2)C1	8.72%
CCn1ccc(C(=O)Nc2ncc(C)s2)n1	5.86%
COc1ccc(CN(CC(=O)NC2CCCC2)C(=O)CN2C(=O)COc3ccccc32)cc1	-25.7%
CC(Oc1ccc2c(-c3ccccc3)cc(=O)oc2c1)C(=O)N1CCC[C@@H]1C(N)=O (some centres unmarked)	4.5%
CN1C(=O)C(O)N=C(c2ccccc2)c2ccccc21 (centres unmarked)	3.74%
CC(=O)Nc1ccc(S(=O)(=O)N2CCC(C(=O)O)CC2)cc1	17.1%
COC(=O)c1ccc(NC(=O)C2CC3CCC2C3)cc1 (centres unmarked)	8.97%
CCOC(=O)C1=C(N)OC2=C(C(=O)CCC2)C12C(=O)Nc1ccccc12 (centres unmarked)	6.93%
CCOC(=O)c1c(NC(=O)CSc2nnc(C)s2)sc2c1CCC(CC)C2 (centres unmarked)	10.2%
CCn1c(=O)c(=O)n(CC)c2cc(S(=O)(=O)N3CCc4ccccc43)ccc21	-6.87%
O=C(C[n+]1cccc(Br)c1)c1ccccc1.[Br-]	15.1%
CSc1ccc(/C=N/NC(=O)CN2CCN(Cc3ccc(Cl)cc3)CC2)cc1	2.29%

Reference: paper PMC4336329 (PLoS ONE, 2015)
